Measured values from PubChem BioAssay AID504845 (National Center for Advancing Translational Sciences (NCATS), 2011).
Screen size: about 390,000 compounds; about 150 (0.038%) were called active. Inconclusive means that the source gave no clear call. Such entries were picked first, then a sample of the others. The call rests on the fitted dose curve; in most records, active means well fitted inhibition curve with a large enough effect; inconclusive means small, poorly fitted or top-dose-only effect; inactive means no such curve, though single readings can be large or run the other way. Potencies beside an inconclusive call are fits to weak or partial responses and may not hold up.

Biological target: Regulator of G-protein signaling 4 (Homo sapiens) (UniProt P49798)
Chain of UniProt P49798 (P49798 whole entry, looked up): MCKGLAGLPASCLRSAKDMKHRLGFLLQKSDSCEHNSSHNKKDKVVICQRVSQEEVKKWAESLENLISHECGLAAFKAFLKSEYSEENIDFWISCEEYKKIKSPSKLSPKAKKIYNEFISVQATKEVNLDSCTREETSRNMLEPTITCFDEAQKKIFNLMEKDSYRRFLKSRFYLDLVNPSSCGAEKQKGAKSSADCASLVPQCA
Experiment: Inhibitors of Regulator of G Protein Signaling (RGS) 4: qHTS; further: nearly all actives have a fitted effect of over 75% in size
Conditions: Transcreener GDP fluorescence polarization, RGS4-accelerated GTP hydrolysis; series mostly up to 114 µM; activity change, negative = inhibition: at the top concentration
Outline: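 MLSMR compounds (23 nl, pin-transferred) preincubated 10 min at room temperature with a 500nM (2x) first reagent, then RGS4 at 900nM (2x) plus Transcreener GDP mix added; fluorescence polarization (620/688 nm) read before and after 90 min at 30 °C.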
On the % scale 0 is the no-effect control and ±100 the full control effect; potency means the concentration at half of the fitted maximal effect; tags describe the fitted curve by direction and shape.

Row | Compound | Potency | activity change, negative = inhibition
1 | COc1ccc(C)cc1Nc1nc(-c2c[nH]c3ccccc23)cs1 | inconclusive: 50.1 µM [inhibitor, partial curve, poor fit] | –
2 | Cc1ccc(C2CC2c2n[nH]c(=S)n2-c2cccc(C)c2)cc1 (configuration not stated) | inconclusive: 39.8 µM [inhibitor, full curve, poor fit] | –
3 | COc1ccc(CN(C)CC(=O)Nc2ccc(SC(F)F)cc2)cc1OC | inconclusive: 100 µM [inhibitor, single point] | –
4 | CCOc1ccc(N2C(=O)CS/C2=C(\C(Cl)=C(Cl)Cl)[N+](=O)[O-])cc1 | inconclusive: 79.4 µM [inhibitor, partial curve, poor fit] | –
5 | CCOC(=O)c1ccc(NC(=O)CCc2nc(-c3ccc(C)cc3)no2)cc1 | – | inactive: -14.3%
6 | CCC(=O)NC1CCc2cccc(OC)c2C1 (configuration not stated) | inconclusive: 0.597 µM [inhibitor, partial curve, poor fit] | –
7 | CCCNC(=O)c1nc(C)n(-c2cc(Cl)ccc2Cl)n1 | inconclusive: 56.2 µM [inhibitor, partial curve, poor fit] | –
8 | O=c1oc2c(CN3CCN(CCO)CC3)c(O)ccc2cc1-c1ccccc1 | – | inactive: -5.95%
9 | O=C1NC[C@H](Cc2ccccc2)N(C[C@H]2CCCN2C[C@H](Cc2ccc(O)cc2)N2C[C@H](Cc3ccc(O)cc3)N(CC3CCCCCC3)C(=O)C2=O)C1=O | – | inactive: -29%
10 | COc1ccc(/C=C2/Sc3ccc(C(=O)NCCCN4CCOCC4)cc3NC2=O)cc1OC | inconclusive: 17.8 µM [inhibitor, full curve, poor fit] | –
11 | Cc1cc(=O)[nH]c(SCC(=O)Nc2nnc(SCc3ccccc3)s2)n1 | inconclusive: 50.1 µM [inhibitor, partial curve, poor fit] | –
12 | COc1ccc2nc(C)cc(N/N=C/c3cccc(OC)c3O)c2c1 | inconclusive: 50.1 µM [inhibitor, partial curve, poor fit] | –
13 | COc1ccc2cc(C3CC(c4ccco4)=NN3S(C)(=O)=O)c(Cl)nc2c1 (configuration not stated) | inconclusive: 50.1 µM [inhibitor, partial curve, poor fit] | –
14 | Cc1cc(C)nc(SSc2nc(C)cc(C)n2)n1 | inconclusive: 31.6 µM [inhibitor, full curve, poor fit] | –
15 | CCC(=O)Nc1ccc(N2CCN(Cc3ccccc3F)CC2)cc1 | – | inactive: -7.65%
16 | Cc1ccc(C(=O)NNC(=S)Nc2cccc(Cl)c2Cl)cc1[N+](=O)[O-] | inconclusive: 39.8 µM [inhibitor, partial curve, poor fit] | –
17 | COC(CNC(=O)c1cccnc1)OC | – | inactive: -1.22%
18 | COc1ccc2c(C)nc(Nc3nc(-c4ccccc4)cc(=O)[nH]3)nc2c1 | inconclusive: 44.7 µM [inhibitor, partial curve, poor fit] | –
19 | CCC(=O)N[C@@H]1CC(C(C)(C)NC(=O)CC)CC=C1C (some centres not stated) | inconclusive: 28.2 µM [inhibitor, full curve, poor fit] | –
20 | COc1ccc(C2Nc3ccccc3C(=O)N2c2ccc(C)cc2)cc1Cn1cc([N+](=O)[O-])cn1 (configuration not stated) | – | inactive: 7.69%
21 | Cc1ccccc1NC(=O)CN1C(=O)N/C(=C\c2ccccc2OCc2ccc(C(=O)O)cc2)C1=O | inconclusive: 79.4 µM [inhibitor, single point] | –
22 | Cc1nn(C)c(C)c1S(=O)(=O)N1CCC(C(=O)NC2CCCc3ccccc32)CC1 (configuration not stated) | inconclusive: 79.4 µM [inhibitor, single point] | –
23 | CCCc1[nH][nH]c(=O)c1C(c1ccc(Br)cc1)C(C#N)C#N (configuration not stated) | inconclusive: 44.7 µM [inhibitor, partial curve, poor fit] | –

Row | Compound | Potency | activity change, negative = inhibition
24 | CCOc1ccc(/C=N/Nc2ccc(Cl)nn2)c(O)c1 | – | inactive: 6.35%
25 | CCOC(=O)N1CCc2c(sc(NCc3cc(OC)c(OC)cc3OC)c2C(=O)Nc2ccc(OCC)cc2)C1 | inconclusive: 35.5 µM [inhibitor, full curve, poor fit] | –
26 | CCC1(C)Cc2ccccc2-c2nc3n(c(=O)c21)CC(C(=O)O)S3 (configuration not stated) | – | inactive: -6.12%
27 | COc1ccc(N2CCN(C(=O)c3cc4c(s3)-c3ccccc3OC4)CC2)cc1 | inconclusive: 89.1 µM [inhibitor, single point] | –
28 | COc1ccc(-c2oc3ccccc3c(=O)c2OCC(=O)O)cc1 | inconclusive: 17.8 µM [inhibitor, full curve, poor fit] | –
29 | COc1cccc(C2CC(=O)N3CN(c4cccc(Cl)c4C)CSC3=C2C#N)c1OC (configuration not stated) | inconclusive: 28.2 µM [inhibitor, full curve, poor fit] | –
30 | CN(C)CCCn1c(=S)[nH]c2sc3c(c2c1=O)CCCC3 | inconclusive: 44.7 µM [inhibitor, partial curve, poor fit] | –
31 | CC1=NN(C(=O)c2ccncc2)C(=O)C1N=Nc1ccc2ccccc2c1 (configuration not stated) | inconclusive: 50.1 µM [inhibitor, partial curve, poor fit] | –
32 | N#Cc1cc(O)c(-n2nnc3ccccc32)cc1C#N | – | inactive: -12.3%
33 | COc1ccc(Cl)cc1-n1nnc(-c2nsc(NC(=O)c3ccccc3Cl)n2)c1C | inconclusive: 17.8 µM [inhibitor, full curve, poor fit] | –
34 | CCCSc1nc2sc3c(c2c(=O)n1Cc1ccccc1)CC(C)(CC)OC3 (configuration not stated) | – | inactive: -8.04%
35 | COc1cc(Cl)c(C)cc1NC(=O)CNC(C)c1ccccc1OC (configuration not stated) | – | inactive: 6.44%
36 | O=C1CSC(=S)N1N=Cc1c(O)ccc2ccccc12 | inconclusive: 79.4 µM [inhibitor, partial curve, poor fit] | –
37 | COCCn1c(C)cc(C(=O)COC(=O)c2ccc3c(c2)NC(=O)CS3)c1C | inconclusive: 89.1 µM [inhibitor, partial curve, poor fit] | –
38 | CN(C)C(CNC(=O)c1cc(S(=O)(=O)N(C)c2ccc(F)cc2)ccc1Cl)c1cccs1 (configuration not stated) | – | inactive: 29.1%
39 | CN1c2ccsc2/C(=N/Nc2ccc(F)cc2)CS1(=O)=O | inconclusive: 50.1 µM [inhibitor, partial curve, poor fit] | –
40 | Cc1nn(-c2ccccc2)c(Cl)c1/C=C/C(=O)c1ccccc1 | inconclusive: 79.4 µM [inhibitor, partial curve, poor fit] | –
41 | CCOC(=O)c1cnc(Cc2ccccc2)[nH]c1=O | – | inactive: 6.38%
42 | CCOc1cc(C(c2c(O)nc(SC)[nH]c2=O)c2c(O)nc(SC)[nH]c2=O)ccc1O | inconclusive: 39.8 µM [inhibitor, partial curve, poor fit] | –
43 | COc1ccc(NC(=O)CCOc2cc(C)ccc2C)cc1S(=O)(=O)N1CCCCC1 | – | inactive: -12.8%
44 | O=C(NCCc1ccccc1)c1cc(-c2ccccc2)c(N2CCOCC2)s1 | inconclusive: 89.1 µM [inhibitor, single point] | –
45 | CCCCCCCCCCOC(=O)Cn1c(COc2ccc(Cl)cc2)[n+](C)c2ccccc21 | inconclusive: 89.1 µM [inhibitor, single point] | –
46 | COc1ccc(C(=O)NCC(=O)NCC(=O)OCC(=O)c2ccc(C)cc2)cc1 | – | inactive: -9.83%

Row | Compound | Potency | activity change, negative = inhibition
47 | CCCC(=O)Nc1ccc(-c2nc3ncccc3o2)cc1C | – | inactive: 4.72%
48 | CC(C)c1ccc(CNc2ccc(N3CCOCC3)cc2)cc1 | inconclusive: 50.1 µM [inhibitor, partial curve, poor fit] | –
49 | O=C(CSc1nc2ccccc2o1)c1ccc2c(c1)OCCO2 | inconclusive: 89.1 µM [inhibitor, single point] | –
50 | Cc1cc(NC(=O)c2ccccc2F)on1 | – | inactive: 29.4%
51 | CCN(CC)c1ccc(C=Nc2ccccc2)c(O)c1 | – | inactive: -14.5%
52 | CN(C)[C@@H]1C(=O)C(C(N)=O)=C(O)[C@@]2(O)C(=O)C3=C(O)c4c(O)ccc(Cl)c4[C@@H](O)[C@H]3C[C@@H]12 | inconclusive: 0.67 µM [inhibitor, full curve] | –
53 | Cc1nn(-c2ccccc2)c(C)c1/C=N/n1c(-c2ccccc2Br)n[nH]c1=S | – | inactive: -32.7%
54 | CC(C1CC2CCC1C2)n1c(-c2ccco2)n[nH]c1=S (configuration not stated) | inconclusive: 25.1 µM [inhibitor, full curve, poor fit] | –
55 | O=C(CSc1nnc(-c2ccccc2)o1)N1CCCC1 | – | inactive: 16.2%
56 | COc1ccc(-c2nc3ncccc3o2)cc1NC(=O)c1ccco1 | inconclusive: 35.5 µM [inhibitor, full curve, poor fit] | –
57 | Cc1nc(-c2cccnc2)sc1CCNS(=O)(=O)c1ccc(F)cc1 | – | inactive: 2.91%
58 | CN1CCN(S(=O)(=O)c2ccc(N3CCc4ccccc4C3)nc2)CC1 | inconclusive: 31.6 µM [inhibitor, full curve, poor fit] | –
59 | Cc1cccc(C)c1NC(=O)C1CCCN1C(=O)OC(C)(C)C (configuration not stated) | inconclusive: 44.7 µM [inhibitor, partial curve, poor fit] | –
60 | CCCCNC(=O)c1ccccc1NC(=O)c1ccc2c(c1)OCO2 | inconclusive: 50.1 µM [inhibitor, partial curve, poor fit] | –
61 | O=C(C[C@H]1C[C@H](C(=O)N2CCOCC2)[C@@]2(CCC3CCCC3)c3[nH]c4cc(-c5ccco5)ccc4c3CCN2C1=O)NCCc1ccccn1 | inconclusive: 50.1 µM [inhibitor, partial curve, poor fit] | –
62 | CCC(C)Sc1ccc(-c2nc3ccc(Cl)cn3c2NCc2ccccc2)cc1 (configuration not stated) | – | inactive: -8.73%
63 | Cc1csc(C(=O)O)c1-n1cccc1 | – | inactive: -4.88% [at 56.9 µM]
64 | Nc1nn(-c2ccccc2)nc1C(=O)OCc1ccccc1Br | – | inactive: 16.2%
65 | Clc1ccc(CNC2CCN(Cc3ccccc3)CC2)cc1 | – | inactive: -12.7%
66 | CCCc1cc(=S)n2c([nH]c3ccccc32)c1C#N | inconclusive: 89.1 µM [inhibitor, partial curve, poor fit] | –
67 | CCN1CCc2c(sc(NC(=O)Nc3ccc(Cl)c(Cl)c3)c2C(N)=O)C1 | inconclusive: 50.1 µM [inhibitor, partial curve, poor fit] | –
